# Experimental data reported in paper PMC4336329 (PLoS ONE, 2015).
# Out of some 310,000 compounds screened, about 2,200 (0.71%) showed an effect of 50% or more. The effect is printed as a negative number. The list shows a part of the results.
# Target: human ether-à-go-go-related gene (hERG) potassium channel (human, UniProt Q12809)
# Experiment: primary screen, population patch clamp on CHO cells stably expressing hERG
# Sequence of human ether-à-go-go-related gene (hERG) potassium channel (Q12809 whole entry, looked up): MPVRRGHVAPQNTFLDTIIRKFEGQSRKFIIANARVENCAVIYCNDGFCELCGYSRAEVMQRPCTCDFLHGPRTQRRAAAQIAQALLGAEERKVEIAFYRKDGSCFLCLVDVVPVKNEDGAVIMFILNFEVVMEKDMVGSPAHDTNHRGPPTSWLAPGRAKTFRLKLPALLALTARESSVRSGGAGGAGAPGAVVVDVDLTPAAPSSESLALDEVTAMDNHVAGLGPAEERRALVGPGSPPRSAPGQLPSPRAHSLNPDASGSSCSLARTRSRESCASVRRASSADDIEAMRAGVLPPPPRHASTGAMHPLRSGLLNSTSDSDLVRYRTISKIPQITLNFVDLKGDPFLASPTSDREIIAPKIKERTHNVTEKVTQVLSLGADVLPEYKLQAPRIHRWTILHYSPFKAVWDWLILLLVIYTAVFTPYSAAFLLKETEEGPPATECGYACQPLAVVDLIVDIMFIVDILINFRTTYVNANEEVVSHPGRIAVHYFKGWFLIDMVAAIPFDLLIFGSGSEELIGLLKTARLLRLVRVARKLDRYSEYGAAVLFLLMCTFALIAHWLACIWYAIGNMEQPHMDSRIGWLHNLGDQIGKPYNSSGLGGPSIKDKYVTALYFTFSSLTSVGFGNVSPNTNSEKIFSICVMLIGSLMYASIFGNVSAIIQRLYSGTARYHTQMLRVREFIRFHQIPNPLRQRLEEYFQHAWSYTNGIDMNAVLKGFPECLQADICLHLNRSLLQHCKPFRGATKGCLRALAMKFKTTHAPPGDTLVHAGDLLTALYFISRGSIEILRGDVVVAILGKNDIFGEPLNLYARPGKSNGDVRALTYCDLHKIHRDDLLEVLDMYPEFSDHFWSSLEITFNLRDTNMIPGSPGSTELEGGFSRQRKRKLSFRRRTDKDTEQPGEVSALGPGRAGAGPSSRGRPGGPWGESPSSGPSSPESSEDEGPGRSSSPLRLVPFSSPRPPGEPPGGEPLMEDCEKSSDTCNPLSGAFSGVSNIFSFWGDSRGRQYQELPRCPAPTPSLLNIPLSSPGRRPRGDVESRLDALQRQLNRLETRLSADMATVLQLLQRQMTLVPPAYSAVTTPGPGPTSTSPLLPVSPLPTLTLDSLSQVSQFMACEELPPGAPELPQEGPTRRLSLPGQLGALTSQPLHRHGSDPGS
row,SMILES,"hERG current change (%, negative = inhibition) at 1uM [%]"
1,CC1C(=O)CC(c2ccc([N+](=O)[O-])cc2)NC1c1ccc([N+](=O)[O-])cc1.Cl (stereo not drawn),-51
2,CCOc1ccc(Nc2nc3ccccc3n2C)cc1,11.2
3,CC(NC(=O)c1ccco1)C1COc2ccccc2O1 (stereo not drawn),12.6
4,N#CC1=C(N)C(C#N)(C#N)C(c2cccnc2)C2CCCC=C12 (stereo not drawn),-1.61
5,O=C(Nc1nc(C2C3CC4CC(C3)CC2C4)cs1)c1cc2cc([N+](=O)[O-])ccc2oc1=O (stereo not drawn),5.63
6,COc1ccc(CC(=O)N(CCN(C)C)CC2CCCN(Cc3ccccc3F)C2)cc1 (stereo not drawn),8.8
7,O=C(Cn1ccc([N+](=O)[O-])n1)N1CCCCCC1,13.1
8,O=C(O)c1ccc(S(=O)(=O)NCC2CCCO2)cc1 (stereo not drawn),6.37
9,Cn1c(N)c(Br)c(-c2ccc(F)cc2)c(C#N)c1=O,4.34
10,CCN(CC)P(=O)(Oc1ccccc1)Oc1ccccc1,9.28
11,CCCCn1cc(S(=O)(=O)c2ccccc2)c(=O)c2cc(C)ccc21,-7.29
12,COC(=O)COc1ccccc1C(N)=O,0.27
13,O=c1c2ccccc2nc(SCc2nc(-c3ccccc3)no2)n1-c1ccc(F)cc1,14.3
14,O=C(/C=C/c1ccccc1)c1ccc(NC2=NCCCS2)cc1,13.1
15,O=C(c1ccc(NC2=NC3CS(=O)(=O)CC3S2)cc1)N1CCN(c2ccccc2)CC1 (stereo not drawn),15.1
16,CCN1C(=O)[C@H]2[C@@H](c3ccc(SC4CCCCC4)c(OC)c3)N[C@@](Cc3ccccc3)(C(=O)OC)[C@H]2C1=O.O=C(O)C(F)(F)F,13.7
17,COc1ccc(/C=N/N=C2/NC(=O)C(CC(=O)NC(N)=O)S2)cc1 (stereo not drawn),4.48
18,CCN(CC)C(=O)c1cn(C)c(=O)c2cc(OC)c(OC)cc12,20.3
19,CCCN(C(=O)c1cccc(-n2cccc2)c1)c1c(N)n(Cc2ccccc2)c(=O)[nH]c1=O,17.8
20,COc1ccc(NC(=O)CSc2nccc(C)n2)cc1,9.87
21,O=C(CC(C(=O)O)P(=O)(c1ccccc1)c1ccccc1)c1ccc(Br)cc1 (stereo not drawn),-0.421
22,O=C(N/N=C/c1ccc(Br)o1)c1cccnc1,11.3
23,O=C(/C=C/c1ccc2c(c1)OCO2)N1CCCCC1,15.4

row,SMILES,"hERG current change (%, negative = inhibition) at 1uM [%]"
1,Fc1ccc(-c2ncc3ccccn23)cc1,11.3
2,CN(CC(=O)Nc1cccc(Cl)c1)S(=O)(=O)c1ccc2c(c1)n(C)c(=O)c(=O)n2C,1.68
3,CN1CCC(N2CCCC(C(=O)O)C2)CC1.Cl (stereo not drawn),15.5
4,Cc1ccc(/C=C/C(=O)NCc2ccco2)o1,6
5,COc1cccc(NC(=O)CCP(C)(=O)O)c1,9.18
6,CCOCc1nnc(NC(=O)CCS(=O)(=O)Cc2ccccc2)s1,15.4
7,CCCOc1ccc2oc(=O)c3c(c2c1)CCCN3C(=O)CN(C)Cc1ccccc1,5.33
8,Cc1oc(-c2cccc(Cl)c2)nc1CN1CCC(C(=O)NCCCN2CCCC2=O)CC1,-7.23
9,Cc1nc2ccccn2c(=O)c1NC(=O)c1cccs1,6.9
10,COc1ccc(NC(=O)CN(c2ccc(C(C)C)cc2)S(=O)(=O)c2c(C)noc2C)cc1OC,12.7
11,Cc1ccc(SC2=C(Sc3ccc(C)cc3)C(=O)c3ccccc3C2=O)cc1,13.8
12,Cc1onc(-c2ccccc2Cl)c1C(=O)Nc1nnc(-c2cccc([N+](=O)[O-])c2)s1,16.6
13,O=C(COc1coc(CN2CCc3ccccc3C2)cc1=O)Nc1cccc(F)c1,8
14,O=C(Cn1cnc2scc(-c3ccccc3)c2c1=O)NCc1ccco1,1.92
15,CC1(C)CC2(CCO1)NCCN1C(=O)CSC12 (stereo not drawn),9.54
16,O=C(CSc1nc2ccccc2c(=O)n1CCCC(=O)N1CCCC1)NCc1ccco1,-30.9
17,COc1ccccc1/C=C(/NC(=O)c1ccccc1)C(=O)NCCCn1ccnc1,13.6
18,Cc1ccc(-c2nc3ccccc3nc2Cl)cc1,0.662
19,CC(Oc1cccc2c1OC(C)(C)C2)C(=O)O (stereo not drawn),0.668
20,O=C(/C=C/c1ccc(F)cc1)N1CCCc2ccccc21,1.9
21,O=C(CNC(=O)c1ccco1)Nc1ccc2c(c1)OCCO2,12.7
22,CCOc1cc(C=O)ccc1OCC(=O)N1CCCC1,13.2
23,O=C(NNC(=S)Nc1ccccc1)Nc1ccccc1,13.8

row,SMILES,"hERG current change (%, negative = inhibition) at 1uM [%]"
1,O=C(Cn1[nH]c(=O)c2ccccc2c1=O)Nc1cccnc1,9.58
2,COc1cccc2cc(C(=O)N(Cc3cccs3)CC3CCCO3)c(=O)oc12 (stereo not drawn),16.3
3,Cc1cccc(Nc2ccc(C(=O)O)cc2[N+](=O)[O-])c1C,9.83
4,COc1ccc(Nc2ncnc3sc(C)cc23)cc1.Cl,13.1
5,Cc1ccc(C(=O)N/C(=C\c2ccco2)C(=O)N2CCSCC2)cc1C,5.55
6,O=C(NC1CCS(=O)(=O)C1)Oc1ccc(Cl)cc1 (stereo not drawn),8.62
7,COc1ccccc1-n1cnc2cc(NS(=O)(=O)c3ccc(Br)cc3)ccc21,2.53
8,Cc1ccc(Oc2ccc(Oc3ccc(C)cc3)nn2)cc1,5.96
9,Cc1ccc2nc(NC(=O)C3CCN(S(=O)(=O)c4cnc[nH]4)CC3)sc2c1,12.3
10,O=C(COc1ccc([N+](=O)[O-])cc1)Nc1nc(-c2ccccn2)cs1,12.3
11,O=C(CCN1C(=O)/C(=C/C=C/c2ccccc2)SC1=S)Nc1cccnc1,15.3
12,COc1ccc(NC(=O)CN(C)C(=O)c2cc3c(s2)CCCCC3)cc1,10.5
13,N#C/C(=C\c1ccc(-c2ccccc2[N+](=O)[O-])o1)C(=O)N1CCOCC1,5.45
14,COc1cccc(C2Nc3ccc4ccccc4c3C3=C2C(=O)CC(C)(C)C3)c1OCC(=O)O (stereo not drawn),13.2
15,COc1ccc(C(=O)/C(=C/N(C)C)S(=O)(=O)c2ccccc2)cc1,9.98
16,CCCC(=O)Nc1cc2c(cc1C(C)=O)OCCO2,9.2
17,Cc1[nH]c(=O)[nH]c(=O)c1S(=O)(=O)Nc1ccc(Oc2ccccc2)cc1,5.62
18,Cc1cc(C)c2cc(C(=O)Nc3ccc4c(c3)OCO4)[nH]c2c1,10.4
19,CCOC(=O)c1sc(NC(=O)CSc2nc3c(cc2C#N)CCCCCC3)c(C#N)c1C,3.81
20,COc1ccc([C@H]2[C@H]3C=CC[C@@H](C)[C@@H]3C(=O)N2Cc2ccccc2)cc1Cl,14.8
21,O=C(CN1CCC(NC(=O)c2ccccc2)CC1)NCc1ccccc1F,-5.83
22,Cc1csc(SCC(=O)Nc2cc(S(=O)(=O)N3CCOCC3)ccc2N2CCOCC2)n1,-1.15
23,CCN(CC)S(=O)(=O)c1csc(C(=O)NC2CCCCC2)c1,9.4

row,SMILES,"hERG current change (%, negative = inhibition) at 1uM [%]"
1,C/C(=N\NC(=O)CCc1ccc(S(=O)(=O)N2CCOCC2)cc1)c1ccc(OC(F)F)cc1,8.73
2,O=C(N=Nc1c(O)n(C2OC(=O)c3ccccc32)c2ccccc12)c1ccc(O)cc1 (stereo not drawn),-2.37
3,O=C(Cc1ccccc1[N+](=O)[O-])NCc1ccc(Cl)cc1,8.46
4,CN1CCN(c2ccccc2/C=N/NC(=O)c2cccnc2)CC1,18.3
5,c1ccc(-c2nc(-c3cccnc3)cs2)cc1,11.2
6,CCOc1ccc(-n2nc3c(=O)n(CCN4CCCCC4)nc(C)c3c2C)cc1,1.05
7,OC1CCCN(Cc2ccccc2)C1 (stereo not drawn),2.52
8,Cc1nc2ncnn2c(C)c1CCC(=O)Nc1csc(N)n1,4.04
9,Cc1ccc(NC(=S)NNC(=O)c2c([N+](=O)[O-])c(C)nn2C)cc1,-0.563
10,CSCCC(NC(=O)c1ccc(Br)cc1)C(=O)O (stereo not drawn),12.3
11,COc1ccc(C(=O)N=C2SC3CS(=O)(=O)CC3N2Cc2ccccc2)cc1OC (stereo not drawn),18.4
12,CC1Cn2c(nnc2-c2cccc(N)c2)S1 (stereo not drawn),15.2
13,c1cc2c(cc1CN1CCNCC1)OCO2,10.9
14,Cc1ccc(CNCc2ccc3c(c2)OCO3)c(C)c1.O=C(O)C(=O)O,13.3
15,COc1cc(C(=O)Nc2cc(C)ccn2)cc(OC)c1OC,9.03
16,COC(=O)Cc1c[nH]c2cccc(OCC(O)CN(Cc3ccccc3)C(C)C)c12.O=C(O)c1ccccc1O (stereo not drawn),-31.5
17,COc1ccc(C(=O)C2CCN(CC(=O)NCc3ccccc3)CC2)cc1,-16
18,COc1ccccc1C(=O)NC(=O)COC(=O)Cc1ccccc1[N+](=O)[O-],8.6
19,CN1CCCC1CCNC1C2CC3CC(C2)CC1C3 (stereo not drawn),3.8
20,COc1ccc(CC2CCOC2=O)cc1 (stereo not drawn),0.237
21,CCOc1ccc(Nc2nc(N)c([N+](=O)[O-])c(N3CCN(CC)CC3)n2)cc1,-4.67
